# From PubChem BioAssay AID624172 (National Center for Advancing Translational Sciences (NCATS), 2012)
# Among all 380,000 compounds or so, about 25 (0.007%) were called active. Inconclusive means that the source gave no clear call. Such entries were picked first, then a sample of the others. Calls come from the whole dose curve; as a rule, active = well fitted activation curve with a large enough effect; inconclusive = small, poorly fitted or top-dose-only effect; inactive = no such curve, though single readings can be large or run the other way. Potencies of inconclusive entries are left out as doubtful fits.
# Target: Glucagon-like peptide 1 receptor (Homo sapiens) (UniProt P43220)
# Assay: qHTS of GLP-1 Receptor Agonists; for activation: % of control where 0% means no effect
# Settings: HEK293 GLP-1R CRE-luciferase, luminescence, 4-6 h, cells express a hypersensitive GLP-1R form; activation: at 45.6 µM (top of the series) unless noted
# Potency is the fitted concentration of half-maximal effect; tags give direction and shape of the fitted curve.
# Chain of UniProt P43220 (P43220 whole entry, looked up): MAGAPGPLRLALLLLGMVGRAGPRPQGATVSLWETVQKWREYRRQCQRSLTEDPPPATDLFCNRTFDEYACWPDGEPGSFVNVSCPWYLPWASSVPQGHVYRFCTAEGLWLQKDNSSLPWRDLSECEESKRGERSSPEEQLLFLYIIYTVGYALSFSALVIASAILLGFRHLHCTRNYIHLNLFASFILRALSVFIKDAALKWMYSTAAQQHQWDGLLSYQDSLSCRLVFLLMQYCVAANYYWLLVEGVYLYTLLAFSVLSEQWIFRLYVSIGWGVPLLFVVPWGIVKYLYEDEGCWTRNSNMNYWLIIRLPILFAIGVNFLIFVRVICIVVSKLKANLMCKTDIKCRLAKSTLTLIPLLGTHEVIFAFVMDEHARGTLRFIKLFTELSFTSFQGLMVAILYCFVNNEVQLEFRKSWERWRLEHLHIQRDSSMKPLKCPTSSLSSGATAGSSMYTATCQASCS
SMILES,Potency,activation
Cn1c(=O)[nH]c(=O)c2c1nc(Br)n2Cc1ccccc1Cl,"inconclusive [activator, single point]",
C1CCC(c2nn3c(-c4n[nH]c5c4CCC5)nnc3s2)CC1,"inconclusive [activator, partial curve, poor fit]",
O=C(N/N=C\c1cc(Br)c(Br)o1)c1cncc(Br)c1,inactive,
Cc1ccc(NC(=O)[C@@H](C)NC(=O)[C@@H]2Cc3ccccc3CN2)cc1,inactive,
O=[N+]([O-])c1ccc2nonc2c1Nc1cccc(F)c1,"inconclusive [activator, partial curve]",
CCN(CC)S(=O)(=O)c1ccc2oc(C(=O)N3CCOCC3)c(C)c2c1,"inconclusive [activator, partial curve]",
Cn1cccc1CNC(=S)Nc1ccccc1F,inactive,
C/C(=N\N=c1/sc2ccccc2n1C)c1ccccn1,"inconclusive [activator, partial curve, poor fit]",
CCOC(=O)C1=CN(Cc2ccco2)S(=O)(=O)N(C)C1c1ccc2ccccc2c1 (configuration not stated),inactive,
COc1ccc(NC(=O)c2cc(-c3ccco3)nc3ccccc23)cn1,inactive,
COc1ccc(S(=O)(=O)c2cnc3ccc(OC)cc3c2N2CCC3(CC2)OCCO3)cc1,"inconclusive [activator, single point]",
Cc1nc(N2CCN(c3ccccn3)CC2)c2c(C)c(C(=O)N3CCN(c4cccc(Cl)c4)CC3)sc2n1,,inconclusive: 52.9% [activator]
COc1ccc(NC(=O)/C(C#N)=C/c2ccc(Sc3nncn3C)c([N+](=O)[O-])c2)cc1,inactive,
COc1ccc(OC)c(NC(=O)c2ccccc2SC)c1,"inconclusive [activator, single point]",
O=C(OCCOc1ccccc1Cl)c1ccc(-n2cnnn2)cc1,"inconclusive [activator, single point]",
N/C(Cc1ccccc1)=N\OC(=O)c1cccc2ccccc12,"inconclusive [activator, partial curve]",
CC(CCc1ccco1)NC(=O)c1cccc2c1C(=O)N(C1CCCCC1)C2 (configuration not stated),"inconclusive [activator, partial curve]",
COc1ccc(C(C)=O)cc1COC(=O)c1ccc(C)c(S(=O)(=O)N2CCOCC2)c1,"inconclusive [activator, partial curve, poor fit]",
CC(C)c1ccc(/C=C/C(=O)NC(=S)NN2CCOCC2)cc1,inactive,
COc1ccc2c(c1)oc(=O)c1ccccc12,"inconclusive [activator, single point]",
O=[N+]([O-])c1ccc2nc(-c3ccccc3)[nH]c2c1,"inconclusive [activator, partial curve, poor fit]",
C=CCc1ccc(OCCOc2cccc3ccc(C)nc23)c(OC)c1,"inconclusive [activator, partial curve, poor fit]",
CCc1nnc(NC(=O)CSc2nc3c(c(=O)n2C)SC(C)C3)s1 (configuration not stated),inactive,
CC(C)Cn1c(O)c2ccc(C(=O)N=NC(=O)c3cccnc3)cc2c1O,inactive,

SMILES,Potency,activation
c1coc(-c2cc3nc(NC4CCCCC4)ccn3n2)c1,inactive,
CCCCc1oc2ccccc2c1C(=O)c1cc(I)c(OCCN(CC)CC)c(I)c1,"inconclusive [activator, partial curve, poor fit]",
COCCCN=Cc1c(-c2ccccc2)[nH]n(-c2nc3ccccc3s2)c1=O,inactive,
CC(C)c1cc(NCCOCCO)n2c(nc3ccccc32)c1C#N,inactive,
O=C(c1ccccc1F)N1CCC2CC1c1cc(-c3ccc4c(c3)OCO4)ccc12 (configuration not stated),inactive,
O=C(O)c1cccnc1,"inconclusive [activator, partial curve, poor fit]",
Cc1ccc(Nc2c(-c3ccc(N4CCOCC4)cc3)nc3cnccn23)cc1,"inconclusive [activator, partial curve]",
O=C(NCc1ccco1)c1ccc(Cn2c(=O)c3sccc3n(Cc3cccc(F)c3)c2=O)cc1,"inconclusive [activator, partial curve]",
O=C(NN=Cc1ccc2c(c1)CCC2)c1cccc([N+](=O)[O-])c1,inactive,
CC1CCCC(C)N1C(=O)c1ccc2c(c1)S(=O)(=O)c1ccccc1C2=O (configuration not stated),"inconclusive [activator, partial curve, poor fit]",
COc1ccc(-c2csc(N(CCCN(C)C)C(=O)c3cccs3)n2)cc1,inactive,
CN(C)c1ccnc(Oc2ccc(C(C)(C)C)cc2)c1C#N,"inconclusive [activator, single point]",
O=C(NCCc1ccccc1)c1cccc(NC(=O)C2CCCC2)c1,inactive,
CCCCCC1CCC(c2n[nH]c(=S)n2C)CC1 (configuration not stated),inactive,
CCOc1ncccc1C(=O)OCC(=O)Nc1cc(C(C)(C)C)ccc1OC,"inconclusive [activator, partial curve, poor fit]",
COc1ccc(OC)c(-c2cc(C(=O)N3CCc4ccccc4C3)no2)c1,"inconclusive [activator, partial curve, poor fit]",
CCN(CC)c1ccc2c(C)c(Cl)c(=O)oc2c1,"inconclusive [activator, partial curve, poor fit]",
Cc1noc(C)c1CSc1nc2ccccc2n1CCc1ccccc1,inactive,
CN1C(=O)/C(=C/c2ccc(OCc3ccc(F)cc3)cc2)N(C)C1=S,inactive,
COc1ccc(C(CNC(=O)c2nn(-c3ccccc3)c(=O)c3ccccc23)N2CCOCC2)cc1 (configuration not stated),inactive,
CC(C)NC(=O)c1ccc(CSCc2ccccc2Cl)o1,inactive,
O=C1C=CC(=O)N1CCCCCCCCCCN1C(=O)C=CC1=O,inactive,
O=C(NCc1ccco1)Nc1ccc2nsnc2c1,inactive,
Cc1ccc(-n2ncc3c2ncn2nc(-c4ccco4)nc32)c(C)c1,"inconclusive [activator, single point]",

SMILES,Potency,activation
Cc1ccc(CNc2ncnc(N)c2[N+](=O)[O-])cc1,,inconclusive: 40% [activator]
COc1ccc(C(=O)OCc2ccccc2C#N)cc1S(=O)(=O)N1CCOCC1,,inconclusive: 35.7% [activator]
CCN(Cc1cnn(C)c1)C(=O)CC1C(=O)NCCN1Cc1cccc(OC)c1OC (configuration not stated),,inconclusive: 51.9% [activator]
NC(=O)c1ccc2c(c1)OCCO2,inactive,
COc1ccc(NC(=O)Cn2nnc(-c3ccccc3F)n2)cc1Cl,"inconclusive [activator, single point]",
O=C(O)c1nn(CCOc2c(Cl)cccc2Cl)c(=O)c2ccccc12,"inconclusive [activator, partial curve, poor fit]",
CN(Cc1ccco1)c1ncnc2ccc(-c3ccc4c(ccn4C)c3)cc12,"inconclusive [activator, single point]",
CN1CCN(c2ccc([N+](=O)[O-])cc2NC(=O)c2cccs2)CC1,"inconclusive [activator, single point]",
CCOc1ncccc1C(=O)Nc1ccc(S(=O)(=O)Nc2nc(C)cc(C)n2)cc1,"inconclusive [activator, partial curve, poor fit]",
COc1ccc(-c2cc(=O)c3c(OC)c(OC)c(OC)c(OC)c3o2)cc1OC,"inconclusive [activator, partial curve]",
O=C(CCN1C(=O)c2ccccc2C1=O)N(CCO)Cc1ccccc1,,inconclusive: 30% [activator]
CCCn1c(SCC(=O)N2CCCc3ccccc32)nc2c1c(=O)n(C)c(=O)n2C,"inconclusive [activator, single point]",
CC(C)c1cc(=O)oc2c3c4c(cc12)CCCN4CCC3,"inconclusive [activator, single point]",
CCc1ccc(OCC(=O)NCc2ccco2)c(Br)c1,"inconclusive [activator, single point]",
Cc1cccc(Nc2nc(N)c([N+](=O)[O-])c(NCc3ccccc3)n2)c1,"inconclusive [activator, partial curve]",
CCOC(=O)c1c(NC(=O)Cc2ccccc2)sc2c1CCN(CC)C2,"inconclusive [activator, partial curve, poor fit]",
CC(=O)c1cccc(Nc2nc(-c3ccccc3)cs2)c1,inactive,
COc1cc(-c2cn(S(=O)(=O)c3cccc4nsnc34)nc2N)cc(OC)c1OC,"inconclusive [activator, partial curve, poor fit]",
Cc1nc2c(c3c1[nH]c1ccccc13)C(=O)CC(C)(C)C2,"inconclusive [activator, partial curve]",
Cc1nnc2sc(-c3csc4c3CCCC4)nn12,"inconclusive [activator, single point]",
O=C(NCc1ccccc1)C(c1ccc(O)cc1)N(C(=O)Cn1nnc(-c2cccs2)n1)c1ccc2c(c1)OCCO2 (configuration not stated),"inconclusive [activator, partial curve, poor fit]",
CCN=C1S/C(=C\c2cn(CC)c3ccccc23)C(=O)N1CC,active: 14.1 µM,
Cc1ccccc1OCCCCn1cnc2ccccc21,"inconclusive [activator, full curve]",
CCc1nc2ccccc2c(C(=O)OCc2nc3ccccc3c(=O)[nH]2)c1C,"inconclusive [activator, partial curve, poor fit]",
